# Assay results taken from PubChem BioAssay AID686979 (National Center for Advancing Translational Sciences (NCATS), 2013).
# In all, about 420,000 compounds went through this assay and about 50,000 (12%) were called active. The shares of active, inactive and inconclusive entries below differ from those in the screen. Calls come from the whole dose curve; as a rule, active = well fitted inhibition curve with a large enough effect; inconclusive = small, poorly fitted or top-dose-only effect; inactive = flat fitted curve, though single readings scatter. Potencies of inconclusive entries are left out as doubtful fits.
# Assay: qHTS for Inhibitors of human tyrosyl-DNA phosphodiesterase 1 (TDP1): qHTS in cells in presence of CPT; note: nearly all actives have a fitted effect of over 55% in size
# Settings: chicken DT40 Tdp1-/-;hTDP1 cells + 20 nM CPT, ATP luminescence, 48 h; activity change, negative = growth inhibition: at 46.2 µM (top of the series)
# Outline: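 Chicken DT40 Tdp1-/- cells complemented with human TDP1, 400 cells/well, exposed to compounds plus 20 nM camptothecin for at least 48 h at 37 C; viability read as ATP content by CellTiter-Glo luminescence.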
# % is set by controls: 0 for no effect and ±100 for the full control effect; potency is the fitted concentration of half-maximal effect; tags give direction and shape of the fitted curve.
Compound,"activity change, negative = growth inhibition",Potency
CCCCNC(=O)CNC(=O)c1nn(-c2ccc(OC)cc2)c(=O)c2ccccc12,inactive: -4.75%,
Cc1ccc(C(=O)Nc2ccccc2Cl)cc1,,"inconclusive [inhibitor, single point]"
NC(=O)N/N=C/c1ccc2cccc(OCc3ccccc3)c2n1,inactive: 3.01%,
CC(C)n1c(SCC(=O)Nc2ccc3c(c2)OCO3)nc2c1c(=O)n(C)c(=O)n2C,,"inconclusive [inhibitor, single point]"
CC1(C)CC2CC(C)(CN2S(=O)(=O)c2ccc(N)cc2)C1 (configuration not stated),,"inconclusive [inhibitor, single point]"
COc1ccc(S(=O)(=O)N2CCOCC2)cc1NC(=O)CSc1nnnn1C1CC1,inactive: -9.74%,
Cc1cccnc1NC(=O)Cn1nc(-c2ccccc2)oc1=S,inactive: -29.8%,
Cc1cccc(NC(=O)Cn2c(=O)n(CCCCCC(=O)NCc3ccccc3)c(=O)c3sccc32)c1,,"inconclusive [inhibitor, single point]"
Cc1nnc(NC(=O)c2ccc(F)c(S(=O)(=O)N3CCCCC3)c2)s1,inactive: -14.4%,
CNc1nc(Oc2cccc(NC(C)=O)c2)c2sccc2n1,,"inconclusive [inhibitor, single point]"
CCOc1ccc(Nc2cc(C(=O)NCc3ccccc3Cl)c3ccccc3n2)cc1,,active: 10.3 µM
COc1ccccc1OCc1cc(C(=O)N2CCCC(OCc3cccnc3)C2)no1 (configuration not stated),,"inconclusive [inhibitor, single point]"
Cc1ccc(-n2cc(CNCCCN3CCCC3=O)c(-c3ccc(F)cc3)n2)cc1,,"inconclusive [inhibitor, single point]"
CC(=O)Nc1ccc(Nc2ncc([N+](=O)[O-])c(Nc3ccc(NC(C)=O)cc3)n2)cc1,,"inconclusive [inhibitor, partial curve]"
CCN(C(=O)CCc1nnc2ccc(NCc3ccco3)nn12)c1ccccc1,inactive: -22.5%,
C=CCC[C@@H](CCCCC)OC(=O)/C=C/[C@@H](O)[C@H](O)C[C@H](O)CC=C,,active: 23.1 µM
COc1ccc(CNCC(=O)Nc2cc(OC)cc(OC)c2)cc1,inactive: -24.5%,
Cc1cc(C)cc(NCc2cc(=O)oc3cc(-c4ccccc4)c(O)cc23)c1,,"inconclusive [inhibitor, single point]"
Cc1sc(NC(=O)c2ccccc2)c(C(c2ccc(Cl)cc2)N2CCN(CCO)CC2)c1C (configuration not stated),,active: 23.1 µM
CC(C)(C)OC(=O)NCc1ccc(NC(=O)c2nc[nH]c2C(=O)NCCCNC(=O)c2[nH]cnc2C(=O)Nc2ccc(CNC(=O)OC(C)(C)C)cc2)cc1,,active: 13 µM
COc1ccc(Oc2ccccc2/C=N/O)cc1,inactive: -22.8%,
CC(C)(C)CNC(=O)c1cc2c(Br)ccc(Br)c2nc1N,,"inconclusive [inhibitor, single point]"
CCCC(=O)Nc1cc(-c2nn(C)c(=O)c3ccccc23)ccc1N1CCCCC1,,"inconclusive [inhibitor, single point]"

Compound,"activity change, negative = growth inhibition",Potency
Cc1ccc(NC(=O)C2CCCN(C(=O)c3ccc(Cl)cc3)C2)cc1C (configuration not stated),,active: 4.11 µM
CCOc1ccc(NC(=O)C2C3C=CC4(CN(C(C(=O)OC)C(C)C)C(=O)C24)O3)cc1 (configuration not stated),,"inconclusive [inhibitor, full curve, poor fit]"
C=Cc1ccc(CC2(C)C(=O)Nc3ccc(-c4cccnc4)cc32)cc1 (configuration not stated),,"inconclusive [inhibitor, partial curve]"
COc1ccc(-c2cncnc2-c2ccc(OC)cc2O)cc1,,"inconclusive [inhibitor, partial curve]"
CC(C)N(C(=O)[C@H]1C[C@H](CC(=O)NCc2cccc(C(F)(F)F)c2)C(=O)N2CCc3c([nH]c4cc(CCC(=O)N(C)C)ccc34)[C@]12C)C(C)C,,"inconclusive [inhibitor, single point]"
O=C(COc1ccccc1)NCC(c1ccc(Cl)cc1)N1CCCCC1 (configuration not stated),,"inconclusive [inhibitor, single point]"
Cc1cc(-c2csc3ncnc(N4CCN(C)CC4)c23)cc(C)c1C,inactive: -21%,
c1ccc2c(c1)ccn1c(Cc3ccsc3)c(C3CCCCC3)nc21,,active: 18.4 µM
CCOc1ccc(C2C(C(=O)c3ccc(C)o3)=C(O)C(=O)N2c2cc(C)on2)cc1OC (configuration not stated),inactive: -8.76%,
Cc1cc(C)c(NC(=O)C2CCCO2)c(C)c1NC(=O)C1CCCO1 (configuration not stated),inactive: 2.5%,
CC1(c2nnc(-c3cccc(Cl)c3)o2)CC(c2cccnc2)=NO1 (configuration not stated),,"inconclusive [inhibitor, partial curve]"
CCCc1ccc2oc(C(=O)NCCCN3CCOCC3)c(C)c2c1,,"inconclusive [inhibitor, single point]"
C=C(C)COc1ccc(-c2nc(N)ncc2Oc2ccccc2OC)c(O)c1,,"inconclusive [inhibitor, single point]"
Fc1ccc(C(c2nnnn2C2CCCC2)N2CCc3ccccc32)cc1 (configuration not stated),,"inconclusive [inhibitor, single point]"
CCOc1cc(C(=O)NCc2ccc3c(c2)OCO3)cc(OCC)c1OCC,inactive: 4.07%,
CCOc1ccccc1NC(=O)CN(c1ccc(OC)c(OC)c1)S(=O)(=O)c1ccc(C)cc1,,"inconclusive [inhibitor, partial curve]"
COc1ccc(NC(=O)CSCC(=O)NCCc2ccccn2)cc1,inactive: 0.472%,
CC(=O)CC1c2cc(F)ccc2C=C(c2ccsc2)N1c1ccc(-c2ccc(C(N)=O)cc2)cc1 (configuration not stated),,"inconclusive [inhibitor, single point]"
Cc1nc2ccc(-c3nc4cc(N)ccc4o3)cc2[nH]1,,"inconclusive [inhibitor, single point]"
CCc1cccc2c(C(O)(c3c[nH]c4c(CC)cccc34)c3c[nH]c4c(CC)cccc34)c[nH]c12,,"inconclusive [inhibitor, single point]"
Cc1csc2nc(COC(=O)c3ccc(Cl)c([N+](=O)[O-])c3)cc(=O)n12,,"inconclusive [inhibitor, single point]"
c1ccc(-c2cccc(N3CCC4(CCNCC4)CC3)c2)cc1,,active: 9.2 µM
O=C(CCNS(=O)(=O)c1cccs1)NCc1ccco1,inactive: -11.7%,

Compound,"activity change, negative = growth inhibition",Potency
CCC1CN(Cc2cn[nH]c2-c2ccc(OC)cc2)Cc2cc(OC)ccc2O1 (configuration not stated),inactive: -4.23% [at 9.04 µM],
Cc1cccc(OCCc2c(C)[nH]c(=S)[nH]c2=O)c1,,"inconclusive [inhibitor, single point]"
N#Cc1ccc(S(=O)(=O)N2CCCCC2c2cc(C(=O)NCc3cccnc3)no2)cc1 (configuration not stated),,"inconclusive [inhibitor, single point]"
Cc1ccc(-c2nnn(CC(=O)NCC3COCCO3)n2)o1 (configuration not stated),,"inconclusive [inhibitor, single point]"
O=C(Nc1ccccc1Cl)c1cc(C2CCCCN2C(=O)c2cccs2)on1 (configuration not stated),,active: 29.1 µM
COc1ccc(CNCc2cccc(Cl)c2)cc1,inconclusive: -32.9% [inhibitor],
CCCCCn1c(CCCNC(=O)c2ccc(Cl)cc2)nc2ccccc21,,"inconclusive [inhibitor, single point]"
Oc1ccc2c(c1)OC(c1ccc(O)c(O)c1)C(O)C2 (configuration not stated),,"inconclusive [inhibitor, single point]"
CN(C)S(=O)(=O)c1ccc(NC(=O)C2CCCN(C(=O)c3ccc(Cl)cc3)C2)cc1 (configuration not stated),,"inconclusive [inhibitor, single point]"
NS(=O)(=O)c1ccc(O)c(NC(=O)c2ccc([N+](=O)[O-])o2)c1,,"inconclusive [inhibitor, single point]"
CCOC(=O)/C=c1\s/c(=C(\C#N)C(=O)NC)n(-c2ccccc2)c1=O,,"inconclusive [inhibitor, single point]"
COc1ccccc1CNC(=O)C(=O)NCC(c1ccco1)S(=O)(=O)c1ccc(C)cc1 (configuration not stated),,"inconclusive [inhibitor, single point]"
CCOc1ccc(C(=O)O/N=C(\N)c2ccccn2)cc1OCC,,"inconclusive [inhibitor, single point]"
Cc1ccc(C(=O)NC(C)CCc2ccccc2)cc1[N+](=O)[O-] (configuration not stated),,"inconclusive [inhibitor, single point]"
Cc1cccc(C(=O)NC(=S)NC(C)c2ccccc2)c1 (configuration not stated),,"inconclusive [inhibitor, single point]"
C/C(CC(=O)Nc1ccccc1-c1ccccc1)=N\NC(=O)COc1ccc(C)cc1Br,,"inconclusive [inhibitor, single point]"
CC(=O)Nc1ccc(C(=O)N(C)C(C(=O)Nc2ccccc2)c2ccccn2)cc1 (configuration not stated),inconclusive: -30.7% [inhibitor],
CCCC(=O)Nc1cc(OC)c(NC(=S)Nc2cccc(C)c2)cc1OC,inconclusive: -30.7% [inhibitor],
Cc1ccc(S(=O)(=O)N2C[C@H]3[C@H]4C(=O)N(C5CCCCC5)C(=O)[C@H]4CC(=O)[C@H]3[C@@H]2c2ccccc2F)cc1,,"inconclusive [inhibitor, single point]"
C[C@H]1COC(=O)[C@@H](CC(=O)OC(C)(C)C)C/C=C\C[C@@H](CC(=O)N[C@H](CO)Cc2ccccc2)C(=O)N1,,"inconclusive [inhibitor, single point]"
CC(=O)Nc1cccc(-c2nc3ccccc3s2)c1C,inactive: 1.91%,
